Over roughly 33,000 sequences, “E-score (-0.5 to 0.5)” has its median near -0.054; the highest 2% begin near 0.35. The list shows a part of the results.
Molecular target: T1, Stb5 (UniProt P38699)
T1 sequence: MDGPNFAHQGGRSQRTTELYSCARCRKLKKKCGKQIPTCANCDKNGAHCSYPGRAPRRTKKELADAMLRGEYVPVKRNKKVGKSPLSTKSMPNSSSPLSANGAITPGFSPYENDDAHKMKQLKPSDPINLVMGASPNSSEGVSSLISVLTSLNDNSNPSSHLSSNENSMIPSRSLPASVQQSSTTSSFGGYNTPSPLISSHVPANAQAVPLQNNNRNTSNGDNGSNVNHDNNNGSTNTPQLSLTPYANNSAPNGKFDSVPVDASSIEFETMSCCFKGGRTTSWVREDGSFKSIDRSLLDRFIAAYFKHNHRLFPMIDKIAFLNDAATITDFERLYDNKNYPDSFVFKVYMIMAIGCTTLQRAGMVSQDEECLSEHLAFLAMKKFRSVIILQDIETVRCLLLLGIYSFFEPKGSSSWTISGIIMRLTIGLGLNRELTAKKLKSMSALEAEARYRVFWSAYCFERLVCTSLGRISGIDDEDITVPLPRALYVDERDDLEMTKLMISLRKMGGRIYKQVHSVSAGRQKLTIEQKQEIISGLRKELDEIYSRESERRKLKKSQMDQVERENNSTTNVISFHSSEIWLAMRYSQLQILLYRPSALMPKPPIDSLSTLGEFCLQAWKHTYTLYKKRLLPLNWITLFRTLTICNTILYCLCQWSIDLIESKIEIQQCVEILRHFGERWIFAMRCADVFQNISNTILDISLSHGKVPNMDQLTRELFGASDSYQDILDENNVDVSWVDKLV
Test: PBM E-score (8-mer binding enrichment) (E-score (-0.5 to 0.5)); higher = stronger / more preferred TF binding; most listed sequences are background and not binding sites
Conditions: protein concentration: 200 nM; construct: GST-full length
Method in brief: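 GST-tagged yeast TFs (full-length or DNA-binding domain) were made by PURExpress in vitro transcription/translation and applied at about 100-200 nM to universal all-10-mer Agilent arrays. The arrays were made double-stranded by primer extension, on fresh or once-stripped slides. Bound protein was detected with fluorescent anti-GST, and scans were normalised with masliner. Each ungapped eight-base word, pooled with its reverse complement, received an E-score (modified Wilcoxon-Mann-Whitney statistic) from the Universal PBM Analysis Suite.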

| Sequence | PBM E-score |
| --- | --- |
| GCGGACGC | 0.175 |
| CTCGACTC | -0.274 |
| ACCTACAA | -0.195 |
| ATGGTAAG | -0.0725 |
| GAAATTCC | 0.18 |
| GTGAGTAA | -0.263 |
| GTCCTAAA | 0.16 |
| ACCGGGGG | 0.286 |
| ACGTCGCC | -0.145 |
| ATTAAATC | 0.154 |
| GTATAATA | 0.23 |
| ATTGATTA | -0.011 |
| GTGTACAC | 0.0145 |
| TACAGGCA | -0.103 |
| AGGGCATA | -0.0797 |
| CGTGTTAC | -0.0374 |
| ACGCCGGG | 0.306 |
| AGATCATG | -0.263 |
| ACCCAGCT | -0.0625 |
| AGGTCACC | -0.0781 |
| CAATGTAG | -0.0807 |
| GACGTAGA | -0.0614 |
| AGCCAGAG | -0.22 |
| AATAATAC | 0.0883 |
| CCTGTCTC | -0.275 |

| Sequence | PBM E-score |
| --- | --- |
| AAGTGCAC | -0.186 |
| GCGACTTA | 0.0301 |
| ACACGCTA | -0.00936 |
| CGATAAAG | 0.12 |
| CTCCGTAC | 0.229 |
| AGTCATGA | -0.0606 |
| GCGCGAAC | 0.0921 |
| AGTGGTAG | -0.18 |
| CAAAGTCG | -0.0612 |
| ATTGTGCC | 0.122 |
| ATGGTAGG | -0.151 |
| TCCAACGA | -0.183 |
| ACCGAAAC | 0.24 |
| CTAGATTA | -0.108 |
| CAGTACGA | -0.208 |
| CTTAGGGC | 0.0286 |
| CTACGCCC | -0.0109 |
| CTATAAAC | 0.165 |
| AACGGGAT | 0.322 |
| TAGTTCGA | -0.152 |
| AGTAGGGC | 0.0296 |
| CCACCAGG | -0.171 |
| ACCCTTTG | 0.0498 |
| CGTTTTAC | 0.0966 |
| ATTTGACG | 0.104 |

| Sequence | PBM E-score |
| --- | --- |
| GCAACTCC | 0.189 |
| CCTCCCTC | -0.109 |
| ATCAGATG | -0.115 |
| GAACCCAA | -0.0386 |
| GGATCTCA | -0.0635 |
| AATGCGGC | 0.243 |
| CGTGATAC | -0.0683 |
| GTATGGGA | -0.0832 |
| ACAGAGAC | -0.0571 |
| CGCTAAGC | 0.0898 |
| AGTCATTA | -0.261 |
| AGGACTGA | -0.184 |
| ACACTCGC | -0.0125 |
| GTAGGTCA | -0.0628 |
| CGGTGGTA | 0.441 |
| GCCAATCA | -0.29 |
| GAGGCAGC | -0.266 |
| GAGTTGGA | -0.219 |
| GACATCCA | -0.0118 |
| CATATCGC | 0.18 |
| GGGGGAAC | 0.0385 |
| ACCTGCAC | -0.201 |
| GAAATTGC | -0.0137 |
| GGTTACAC | 0.127 |
| AAACCACG | -0.103 |

| Sequence | PBM E-score |
| --- | --- |
| CCCGAGAC | 0.146 |
| TAGTATAA | 0.181 |
| AAAGCCCT | -0.125 |
| GCGTCCCA | -0.0996 |
| CGTAAGAC | 0.0101 |
| ATCTGGGG | -0.142 |
| TGAAACAA | -0.149 |
| TACGCAGA | -0.163 |
| AACCTCCG | 0.408 |
| GGACAACC | 0.0349 |
| CGAGGCCC | 0.0479 |
| CCCTGAGA | -0.247 |
| CCAACGTA | -0.207 |
| ATCCATGC | 0.00738 |
| GGTTTAGA | 0.0135 |
| AAGATCCG | 0.307 |
| ACTGTGCC | -0.127 |
| CTAACGAC | -0.195 |
| GACTTCTC | -0.163 |
| CATTGTCA | -0.285 |
| CGAAAGCA | -0.0233 |
| AGGTAGAC | 0.0316 |
| ATAGGGTC | -0.0727 |
| CAACGTGG | -0.231 |
| CCAACCCC | 0.0735 |

| Sequence | PBM E-score |
| --- | --- |
| ACCATTAC | -0.0699 |
| TGCACCCA | -0.215 |
| TATATCGA | 0.168 |
| GAGCGGAC | 0.376 |
| ATTCACTA | -0.127 |
| GTGTACCA | -0.12 |
| CCAGGACC | -0.168 |
| CTCGCGTA | -0.172 |
| GATGTGGC | -0.105 |
| CAGTGGCA | -0.265 |
| CAGAATTA | 0.0466 |
| AGGGATGA | -0.0722 |
| CAGCAAGG | -0.369 |
| GAGGAAGA | -0.19 |
| ACAAATGT | 0.035 |
| GTTCCATA | -0.0279 |
| AGCTGCAT | -0.171 |
| CACCTACG | 0.187 |
| ATACTAGA | -0.152 |
| AACGACTG | -0.255 |
| CGCGGGTA | 0.235 |
| TTCCAAAA | -0.118 |
| AAATTTCC | 0.00205 |
| AGTAGGAT | -0.164 |
| ATGAGTTA | -0.145 |

| Sequence | PBM E-score |
| --- | --- |
| ATACGGCA | 0.164 |
| AACACTAG | -0.135 |
| ACGTGTAT | -0.176 |
| CCGCGCTA | 0.256 |
| CTAGATAA | -0.164 |
| ATCCTCTG | -0.156 |
| AATTGCAT | -0.162 |
| GCGATACA | -0.0993 |
| ATGGCCCC | 0.167 |
| CGAAGTAA | -0.0992 |
| ATATCAAT | 0.00089 |
| ACATCTGA | -0.0767 |
| CCGTCCTA | 0.161 |
| ACAGCTAT | -0.275 |
| ACGCGTTG | 0.103 |
| GCTGTTAA | 0.232 |
| CAGTGACG | -0.0235 |
| CTTACGCC | 0.111 |
| TACATCGA | -0.0768 |
| ATCGGGTA | 0.114 |
| AGGAATCC | -0.145 |
| CCAGTTCG | 0.0984 |
| CAGGCCCA | -0.176 |
| ATCGAAAC | 0.0332 |
| GTACCAAC | -0.00359 |

| Sequence | PBM E-score |
| --- | --- |
| CCTGCGCA | -0.105 |
| GCCTAAAA | -0.167 |
| ACGCTGAC | 0.00893 |
| AAGCAATT | -0.142 |
| AGATGTGA | -0.0838 |
| TATGAAGA | -0.114 |
| GCATTTTA | 0.178 |
| CGTGTGAG | -0.218 |
| CATCGACC | 0.0202 |
| AAAACTCA | -0.142 |
| ACGGCACT | 0.427 |
| GAATGATA | -0.0504 |
| CTTCGGTC | 0.119 |
| ATCTAAAT | 0.126 |
| CTTTCGCA | -0.0435 |
| AACTAAAC | 0.0284 |
| CGCCGGAG | 0.306 |
| GCCATCGA | -0.0312 |
| CAGGAGGC | -0.098 |
| CGGCAAAA | 0.245 |
| CACGAGGC | -0.0617 |
| GGGGTCCA | -0.0316 |

— the supplement of paper PMC3334620
